Reference: the supplement of paper PMC11417369
± gives the standard deviation of the averaged measurements. Some of the results follow.

test system: PfAP2-I AP2 domain 3 (GST-tagged); assay: gcPBM binding intensity (ln(normalized median fluorescence intensity)); higher = stronger DNA binding
Method in brief: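 Binding intensity is the highest Masliner-normalised natural-log median intensity over replicate spots in either probe orientation. To obtain it, GST-tagged P. falciparum DNA-binding domains made in E. coli were incubated for 1 h on an Agilent 4 × 180k array of primer-extended double-stranded 36-bp intergenic genomic probes plus negative controls. Detection used Alexa488 anti-GST antibody with scanning at 488 nm.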

Sequence	gcPBM binding intensity (ln)
TAAATATATATATATGTACACACTCCAATACATATA [CACACA_site8858]	7.88 ± 0.39
ACTTTATATTTTGAACGTACAAAAAAAAAATTATGT [XGTACX_site5588]	8.11 ± 0.28
AACCATTAATTCTCTACACACTTTTATTTTATTTAG [CACACA_site1769]	8.11 ± 0.44
GCACATATATACATACATACATACATACATATGTAT [TGCATGCA_negctrl_site95]	8.07 ± 0.83
ATATTTATAACTTGTACACACAAATATGCATATATA [CACACA_site7583]	8.27 ± 0.52
TTATTATTCCCTCATTTTGTTACCATTATTTCAATT [CACACA_negctrl_site1023]	8.05 ± 0.68
TTAAAATTTTTTTTTTTTTTTTTTTTTTTTTTTTTC [CACACA_negctrl_site957]	7.64 ± 0.2
TTGTTAAAATTATTAAGTTAAATATCGATTTGTAAA [XGTACX_negctrl_site429]	7.3 ± 0.47
TATAAGTTTATATATACACACATATATATATATATA [CACACA_site3274]	9.49 ± 0.68
AAAAAAAAAAAAAACACACACACAAATACAAATACA [CACACA_site414]	8.4 ± 0.44
ATAAATAATTGTAGTTGTACATGATATTTTTATTAC [XGTACX_site550]	7.65 ± 0.42
TACAAAAAAAGATGATGTACAATGAAAAATAAGAAA [XGTACX_site5840]	8.1 ± 0.73
AAATGGACCTAATTATCACACATTATACTCGTTTTC [CACACA_site5996]	7.62 ± 0.57
ATATATCATAATAAAAGTACTTATATATTTTATATA [XGTACX_site560]	7.59 ± 0.33
AAAATAAATAAATATACACACCATATATATATTTTT [CACACA_site5573]	7.61 ± 0.39
TTATATAATCCTTTCAAACACACAAAATATAATTAA [CACACA_site1830]	7.75 ± 0.45
AGTGAAAAAAAATTTACACACATAAAATATAAACGA [CACACA_site3724]	7.99 ± 0.79
TTTTTAGTTCATTAAACACACAAAAAAAAAAATAAA [CACACA_site6035]	7.68 ± 0.27
TTTTTTATTCTTTTTGCACACAGGAAATTTACAGAT [CACACA_site1090]	9.94 ± 0.13
TAATACTTTTAATCTACACACGCTGAGACATGCTTT [CACACA_site1484]	7.54 ± 0.56
AAAAAAAATATAAGTGGTACTCACATAAAGACATAT [XGTACX_site3709]	7.99 ± 0.48
AAATAAAATACATATAAACACACATATAAACCAACA [CACACA_site8789]	8.1 ± 0.36

Sequence	gcPBM binding intensity (ln)
AAAATAAAAAGAAAAAATAAAAAGAAAAAATAAAAA [CACACA_negctrl_site120]	7.33 ± 0.78
AATAAAATAATAGGCACACATATATATATATATTAT [CACACA_site273]	8.05 ± 0.42
ATATCCTACTTCTAGTGTACATATATGGACTGATGA [XGTACX_site3683]	8.16 ± 0.62
ATATATCTACATATATGTACATATATGTATATGTAT [XGTACX_site5432]	7.86 ± 0.48
TACAATTTATGACACACACACAATAATACCTATATA [CACACA_site6704]	7.94 ± 0.42
TATATATATATATGTGCACACATAAAGATATTATTT [CACACA_site3734]	10.18 ± 0.021
AAAAAAAAAAAACACACACACACACTAGTACATACA [CACACA_site4551]	8.13 ± 0.085
TTTTTAATACAAAAAAAATAATATGTTATATTTCAA [CACACA_negctrl_site35]	7.34 ± 0.33
ATGAAATATGCACAGTGTACTTTTATGAGGAACATA [XGTACX_site426]	9.045 ± 0.064
GGGAATATATAAGATACACACACAAATTAAATATAA [CACACA_site8898]	7.75 ± 0.52
TGCCCTTTGGTTATAACACACATGCACACGTAAATA [CACACA_site7750]	8.87 ± 0.34
AATTAACCGTGACACACACACATATAAATATAAATA [CACACA_site7790]	8.45 ± 0.69
TATATATATATATATACACACACACCCACCAAAGCG [CACACA_site7904]	9.41 ± 0.32
AAAATGTACTTTTTCTAAAGAGTAATGATGCTTGAT [CACACA_negctrl_site1124]	7.61 ± 0.54
TTTAACGTTGAATATACACACATATATTTATTTATA [CACACA_site7695]	7.47 ± 0.54
AATCCTTTAAAACACACACACAAAAAAAAAAAAAAA [CACACA_site642]	8.11 ± 0.48
TGCTTCATAAATAAAACATGCAATATAGAAATTAAA [TGCATGCA_site690]	7.79 ± 0.83
TATAGTAAAATTAGGGTGCTTTTGTAACAAAAAAAA	9.485 ± 0.092
TTATTTTCTTTCTATGCACACGCACGTATTTGCCCA [CACACA_site9104]	9.39 ± 0.16
AGAGTAGGAAATGGAAAAATAAAATAAATAAATAAA [XGTACX_negctrl_site69]	7.86 ± 0.8
AAATATATATACCACACACACATACCTCTATTTGTA [CACACA_site1854]	8.02 ± 0.51
AATAAAAAAATAAAAAAAAAAAAAAATAAAAAAAAA [GTGCAC_negctrl_site12]	7.58 ± 0.77

Sequence	gcPBM binding intensity (ln)
CGTATTTTAATATTTACACACTTATTTTTTATATAA [CACACA_site125]	7.94 ± 0.44
TTTTGTAAAAGGTATATATATATATATATATATATA [GTGCAC_negctrl_site734]	9.45 ± 0.69
TTTATATAGAAAAATTGTACGAATTACTTTTTTATA [XGTACX_site6843]	7.38 ± 0.28
TATAGCATATTTCACACACACATAATGAATATTATA [CACACA_site3545]	7.7 ± 0.45
AATGGGTAAACATACACACACACATCTATATTTATA [CACACA_site7025]	7.67 ± 0.61
TAACAAGGTTTATATGCATGCAAACATAACCAAAAA [TGCATGCA_site824]	7.92 ± 0.76
TACTATATCATTTATTGTACAATATTTCTTCAGAAA [XGTACX_site1008]	7.76 ± 0.51
CTTTGCCTTAAAAAGGAACACACATGCTTTTTTTAG [CACACA_site8219]	7.8 ± 0.72
TATAAAAGACTAAATATTATAGAAATATAAATATAA [TGCATGCA_negctrl_site237]	7.29 ± 0.32
AAACAGATAAATAAAAGTACACATTAAAAGGTAGCA [XGTACX_site4150]	7.88 ± 0.47
ATATATATGTATAATCGTACAGTTAACGTATTCTTA [XGTACX_site5649]	7.74 ± 0.4
TAATTAATTTCTTTACGTACATAATTAATATATATA [XGTACX_site7372]	8.02 ± 0.35
GGATTTTAATGAACACGTACATAAAATTAAATAAAT [XGTACX_site7023]	7.87 ± 0.54
GGTTCATAATATGGTTGTACATAAATATATATATAT [XGTACX_site7583]	9.36 ± 0.28
GGGAGGATAGTTCACAGTACCCAGGAAATCTACGGA [XGTACX_site2553]	7.88 ± 0.26
ATTACAATAAATTCGTGTACATGATACCGCCGCTAC [XGTACX_site8997]	7.88 ± 0.61
ATCAAATTTTTGTTATGTACACAATCATTTAATAAA [XGTACX_site810]	7.79 ± 0.57
CACAAATAAATATTCACACATATATGTCTTATATAT [CACACA_site5323]	7.52 ± 0.38
AAAAAAAAAAAATAGGTGCGTGTTACTTTTGTATGC [GTGCAC_site9524]	8.35 ± 0.46
TAATTATTATTAAATACACACACATACCTCCATGTT [CACACA_site9134]	7.71 ± 0.5
TATATATATATATATGTGCGCATATATTTTTTTGTA [GTGCAC_site9983]	9.59 ± 0.25
ACAAAATTTACAAAATGTACAAAATATACAAAATAT [XGTACX_site6465]	7.68 ± 0.59

Sequence	gcPBM binding intensity (ln)
TATTCTTATATATATACACACACAAAATATCTACAA [CACACA_site8144]	7.91 ± 0.47
TTGCATTGATCAAACATACACACATGGTTAATAAAA [CACACA_site2084]	7.89 ± 0.52
AATAATATACATATATATATTATATTGTAATTTTGT [TGCATGCA_negctrl_site1]	7.38 ± 0.51
ACTAGACAAAATATAATGCACACTATTATTTTTATT [CACACA_site2726]	10.9 ± 0.65
TTATATCAAGGGAATGCATGCATATCGTTTTGTATT [TGCATGCA_site327]	7.68 ± 0.88
CATGAGGTATAAAAGGTGCAAATTAATGAGAACATT	11.1 ± 0.36
TATTTCTCACTGTATGGTACAGATATAAATTTTTAT [XGTACX_site8776]	7.83 ± 0.46
TATAAAATAAAAAATAAATATCTATATATATATATA [TGCATGCA_negctrl_site351]	9.21 ± 0.4
TTGTGTTATCCTTTTTTAGATCAACTATTTTTATTC [CACACA_negctrl_site145]	7.75 ± 0.61
ATAAAGCACACCGACACACACATATTTATATTTATA [CACACA_site6620]	9.82 ± 0.5
ATTTATAAAATTAATGCACACATCAGCATTTATAAA [CACACA_site1025]	11.3 ± 0.79
TAAATACATAGATGTACACACATTACAGATGTACAT [CACACA_site4692]	7.83 ± 0.38
TTTATACATTTATATTGTACTAATTCGATTTTATAT [XGTACX_site5424]	7.76 ± 0.42
AAAGAAAAAGAAAAAGAAAAATTAGAATATAAAATA [CACACA_negctrl_site792]	7.08 ± 0.75
AATGATCATATATACACACACACAAAAAAAAAAAAA [CACACA_site4009]	8.06 ± 0.69
ATAAGAAATGTAACTTGTACATAAGGATATATATTT [XGTACX_site236]	7.66 ± 0.47
CATTTATATAAATACACACACACAAAAAAAAAAAAA [CACACA_site5459]	8.03 ± 0.5
TAATAATAAAAAAATAGTACATAAATAAAAATAATA [XGTACX_site4774]	7.73 ± 0.38
TTTTTTTTTTTAAGTTCACACATAAATTCGATTTAC [CACACA_site5057]	7.92 ± 0.7
ACCGTTTTTGTGTAATGTACAAAATTTCTGACAGTG [XGTACX_site4999]	7.91 ± 0.7
ATAATTTGTAAAAGGAGTACAAAACCATACTTTTTT [XGTACX_site6076]	7.87 ± 0.33
AAAGGAAAATTAAAAAGTACACATTTGAAAAAAAAA [XGTACX_site2724]	8.01 ± 0.41
